PubChem BioAssay AID1508623 (National Center for Advancing Translational Sciences (NCATS), 2021)
Among all 48,000 compounds or so, about 450 (0.94%) were called active. Not shown: some 19% with an inconclusive outcome. Calls come from the whole dose curve; as a rule, active = well fitted inhibition curve with a large enough effect; inconclusive = small, poorly fitted or top-dose-only effect; inactive = no such curve, though single readings can be large or run the other way. The list shows a part of the results.

Assay: Primary qHTS for Identification of Small Molecule Inhibitors of Huntingtin Promoter Activity; note: nearly all actives have a fitted effect of over 50% in size
Conditions: HEK293 HTT promoter firefly luciferase reporter (activity 0% = vehicle and -100% = no light), 24 h; series mostly up to 57.5 µM; activity change, negative = inhibition: at the top concentration
Outline: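 Quantitative HTS used concentration series of up to 57.5 uM final on HEK293 luciferase reporter cells, 24 h at 37 degrees C. Readout was Dual-Glo firefly luminescence.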

Activity change, negative = inhibition, inactive:
Cc1ccc(S(=O)(=O)n2nc(-c3ccccc3)nc2NCc2ccc(Cl)cc2)cc1 -10.6%
O=C1CC(c2nc(-c3ccc(Cl)cc3)no2)CN1c1ccc2c(c1)OCCO2 (stereo not drawn) -14.7%
O=C(CSc1nc2c([nH]c3ccccc32)c(=O)n1-c1ccccc1)N1CCc2ccccc21 -12.7%
CSc1ccc(CCNC(=O)CCn2c(=O)c3cccn3c3ccc(F)cc32)cc1 -4.96%
C[C@]1(Cn2ccnn2)[C@H](C(=O)O)N2C(=O)C[C@H]2S1(=O)=O 7.18%
CCOC(=O)c1c(NC(=O)c2cc3ccccc3c(=O)o2)sc2c1CCC(C)C2 (stereo not drawn) -2.33%
Cc1ccc(SCC(=O)Nc2ccc3oc(-c4ccccc4C)nc3c2)cc1 61.8%
COc1ccc(-n2c(=O)c3ccccc3n(CC(=O)Nc3ccccc3OC)c2=O)cc1 -18.1%
COc1cc(OC)cc(C(=O)Nc2cc3c(cc2N2CCCC2)n(C)c(=O)c(=O)n3C)c1 -5.58%
Cc1ccc2c(CC(=O)Nc3c(C(=O)c4ccc(C)c(F)c4)oc4ccccc34)coc2c1 -16.9%
CCOc1ccc(NC(=O)c2cnc3ccccn3c2=O)cc1 30.5%
CC(CN(C)C)C(C)(O)Cc1ccc(Cl)cc1 (stereo not drawn) 8.26%
CCN(CC)CCCCNc1ncc2cc(-c3cc(OC)cc(OC)c3)c(NC(=O)NC(C)(C)C)nc2n1 -23.1%
COc1ccc(S(=O)(=O)c2c(O)c3ccc(C(=O)NCc4ccc(F)cc4)cc3[nH]c2=O)cc1 -0.629%
Cc1ccc(CNC(=O)c2cc(C)nc3c2c(C)nn3-c2ccc(C)cc2)cc1 -10.5%
CC[C@@H](CO)NCCN[C@@H](CC)CO 11.9%
O=C(Nc1ccc(Oc2ccccc2)cc1)C1CCN(S(=O)(=O)c2ccc(Cl)cc2)CC1 -28.5%
COc1ccccc1NC(=O)CCCc1nnc2n(C)c(=O)c3sccc3n12 -8.22%
CCOC(=O)c1cc(S(=O)(=O)NCc2ccc(C)cc2)[nH]n1 0%
Cc1ccc2nc3sc(C(=O)NCCCN(C)c4ccccc4)cc3cc2c1 15.6%
Fc1cccc(-n2ncc3c2ncn2nc(Cc4ccccc4)nc32)c1 -10.5%
COc1ccc(NC(=O)CSc2ccc3nc(-c4ccccc4)cn3n2)cc1OC 10.9%
CC(C)NC(=O)c1nn(-c2ccccc2F)nc1CO -21.2%
CC(N=C(NC#N)Nc1ccncc1)C(C)(C)C (stereo not drawn) 8.69%
Cc1ccccc1Nc1c(-c2ccc(N3CCOCC3)cc2)nc2ccccn12 29.9%
Cc1ccc(CNC(=O)CN2C(=O)COc3ccc(S(=O)(=O)Nc4ccccc4)cc32)cc1 -14.9%
CC(C)(C)OC(=O)N1CCC(c2nnc(SCc3cccc(Cl)c3)o2)CC1 -36.4%
Cc1cc(C)cc(NC(=O)CSc2nc(-c3ccccc3)c3cc(F)ccc3n2)c1 -6.8%
Cc1ccc2c(c1)-c1ncc(C(=O)c3ccccc3O)cc1CO2 12.3%
Cc1ccc(C(=O)NC2=NC(c3ccc(C)cc3)CC(=O)N2)cc1 (stereo not drawn) -14.3%
CC(=O)OCC(=O)[C@@]1(OC(C)=O)[C@@H](C)C[C@H]2[C@@H]3C[C@H](F)C4=CC(=O)C=C[C@]4(C)[C@@]3(F)[C@@H](O)C[C@@]21C -5.68%
CC(=O)c1ccc(NC(=O)c2cc3sccc3n2Cc2ccc(F)cc2)cc1 -11.7%
Cc1cc(C)cc(NC(=O)c2cc(CN3CCCC3)on2)c1 65.7%
CCCCCOC(=O)CSc1ncnc2sc3c(c12)CCC(C)C3 (stereo not drawn) 9.82%
CCC(Cc1ccccc1)NC(=O)CN1C(=O)COc2ccc(S(=O)(=O)N3CCCCCC3)cc21 (stereo not drawn) -18.8%
Cc1cc2c(cc1NC(=O)c1ccccc1C)n(C)c(=O)c(=O)n2C 1.17%
COc1ccc(CCNC(=O)CCCn2c(=O)c3cccn3c3ccccc32)cc1OC 5.18%
CCOCCCNC(=O)C1CCN(C(=O)c2cc3sccc3n2C)CC1 -0.278%
COc1ccc(NC(=O)CCCN2C(=O)C(c3ccccc3)Oc3cccnc32)c(OC)c1 (stereo not drawn) -21.3%
CCc1ccc(CNC(=O)CCCN2C(=O)CCn3nc(-c4cccn4C)cc32)cc1 0.561%
CCc1ccc2oc(C(=O)Nc3cccc(Cl)c3C)cc(=O)c2c1 -9.54%
CC(C)CCN(Cc1ccco1)C(=O)c1cc2c(s1)-c1ccccc1OC2 -34.1%
COc1cc(-c2nnc(SCCOc3ccc(Cl)cc3)o2)cc(OC)c1OC -13.7%
O=C(COc1ccccc1)OCc1cc(=O)n2nc(C3CC3)sc2n1 -5.18%
Cc1ccc(C(=O)c2c(N)c(-c3nc(-c4ccc5c(c4)OCO5)cs3)c3ccccn23)cc1C -19.9%
Cc1cccc(N2CCN(C(=O)Cc3c(C(=O)O)c(C)cn3C)CC2)c1C -26.4%
Cc1ccc(C(=O)Nc2cc(-c3nc4ncccc4o3)ccc2C)c(C)c1 22.6%
COCc1nn2cc(-c3ccc(C)cc3)nc2s1 -25.9%
CC(=O)N1CCc2c(sc3c2c(=O)n(Cc2ccccc2)c(=O)n3Cc2ccc(C)cc2)C1 -4.97%
COC(=O)c1ccc(Cn2cnc3nc4c(cc3c2=O)CCCC4)cc1 0.478%
CCOc1ccccc1CNC(=O)C1CCN(S(=O)(=O)c2ccc3[nH]c(=O)ccc3c2)CC1 -4.49%
CCOc1ccccc1NC(=O)Cn1ncc2c(=O)oc3ccc(C)cc3c21 13.4%
CCOC(=O)c1c(C)oc2ncnc(Nc3ccc(OC)cc3OC)c12 -10.9%
COc1ccccc1NC(=O)CSC1=Nc2ccccc2C2=NC(CCC(=O)NCCc3ccccc3)C(=O)N12 (stereo not drawn) -17.5%
O=C(Nc1nc2c(s1)CCCCCC2)Nc1ccc(F)cc1F 47.6%
COc1ccc(N2CCN(C(c3ccccc3)c3sc4nc(-c5ccco5)nn4c3O)CC2)cc1 (stereo not drawn) -28.7%
CN1C(=O)Cc2cc(S(=O)(=O)NCCc3ccc(Cl)cc3)ccc21 8.5%
O=C(Nc1ccc(O)c(-c2nc3ccccc3o2)c1)c1sc2ccccc2c1Cl -17.4%
Cc1cccc(C2C=C(c3ccc(C)c(C)c3)Nc3nnnn32)c1 (stereo not drawn) -11.9%
CC(C)c1ccc(NC(=O)c2ccc3c(c2)CCN3S(=O)(=O)c2ccccc2)cc1 -27.1%
O=C(Nc1nnc(S(=O)(=O)N2CCCc3ccccc32)s1)c1ccccc1Cl -18.7%
CCc1nn2c(=O)cc(COC(=O)CNC(=O)COc3ccc(C)cc3)nc2s1 -1.71%
CC(C)CC(NS(=O)(=O)c1ccc2c(c1)oc(=O)n2C)C(=O)NCc1ccccc1Cl (stereo not drawn) -9.1%
Cc1ccc(NC(=O)CN2CCN(S(=O)(=O)c3ccc(C(C)C)cc3)CC2)cc1F -19.6%
COc1ccc(Nc2nc(N)nc(N)c2S(=O)(=O)c2ccccc2)cc1 -24%
Cc1cn(C)c(CC(=O)N2CCN(c3cccc(Cl)c3)CC2)c1C(=O)O -20.2%
Nc1nc2c(ncn2CCC(CO)CO)c(=O)[nH]1 -5.6%
Cc1ccc(-n2cc(C(=O)Oc3cccc(C)c3)c3ccccc3c2=O)cc1 -8.62%
O=c1c2ccccc2n(Cc2ccccc2Cl)c(=O)n1CCc1ccccc1 0.139%
CCCN(CCC)C(=O)Cn1c(=O)n(-c2ccc(CC)cc2)c(=O)c2ccc(C(=O)NCCc3ccccc3)cc21 -15.8%
CCOC(=O)c1ccc(Nc2nc3ccc(C(=O)c4ccccc4)cc3n3c(C)nnc23)cc1 -12.3%
CCCCCOc1ccc(Cn2c(=O)oc3ccccc32)cc1 5.99%
COc1cc(Cl)c(NC(=O)CCS(=O)(=O)c2ccc3c(c2)NC(=O)CO3)c(OC)c1 0%
CCCOc1ccc(C(=O)OCCN(CC)CC)cc1N
CC(C)(C)OC(=O)N1CCC(c2c(C(=O)NC3CCN(Cc4ccccc4)CC3)cnn2-c2ccc(F)cc2F)CC1 -8.32%
Cc1ccc(NC(=O)C2CCCN(S(=O)(=O)c3ccc4c(c3)oc(=O)n4C)C2)cc1Cl (stereo not drawn) -3.25%
CCOc1ccc(NC(=O)C(=O)c2cc(C)n(-c3cc(C)cc(C)c3)c2C)cc1 -12.8%
COc1ccc(-c2cc(C(=O)NCCc3ccccc3)c3c(-c4ccccc4)[nH]nc3n2)cc1OC -3.19%
Cc1ccc(/C=C/c2onc(C)c2S(=O)(=O)N2CCC(C(=O)Nc3cc(C)ccc3C)CC2)cc1 -6.65%
COc1ccc(S(=O)(=O)c2cn(C)c3ccc(C)cc3c2=O)cc1 -15.7%
O=C(Nc1ccc(F)cc1C(F)(F)F)C1CCN(c2ncccn2)CC1 -9.58%
Cc1cccc(NC(=O)c2c(C)cc(C)nc2SCC(=O)c2ccccc2)c1 -19.9%
Cc1cc(C)c2oc(C(=O)Nc3ccc(S(=O)(=O)N4CCCCCC4)cc3)cc(=O)c2c1 0%
CCOc1ccc(OCC)c(Nc2ccc3cc(S(=O)(=O)N4CCCC4)ccc3n2)c1 -5.81%
CCC1CN(C(=O)N2CCC(C(=O)NCc3cccc(OC)c3OC)CC2)c2cc(C)ccc2O1 (stereo not drawn) -18.5%
COc1ccccc1NC(=O)c1sc2nc(C)c(C(=O)Nc3ccc(C)cc3C)c(-c3ccco3)c2c1N -4.19%
COc1cccc(-c2noc(C3CC(=O)N(c4ccc(F)cc4)C3)n2)c1OC (stereo not drawn) 3.67%
COc1ccccc1CNC(=O)c1cc2sccc2n1Cc1ccc(Cl)cc1 -16.8%
CCc1ccc(NC(=O)CCn2c(=O)c3cccn3c3ccccc32)cc1 -26%
Cc1ccccc1NC(=O)CSc1nc2ccc(NC(=O)c3cccs3)cc2s1 -6.07%
Cc1ccc(NC(=O)c2ccc3[nH]c(C)cc(=O)c3c2)cc1 1.37%
CSc1cccc(NC(=O)c2cccc(N3CCCS3(=O)=O)c2)c1 47%
Cc1nc(-c2ccc(S(=O)(=O)Nc3ccc(C#N)cc3)cc2)co1 -31.3%
COc1cc(C(=O)OCc2cc(=O)n3nc(C4CCCCC4)sc3n2)cc(OC)c1OC -19.3%
COc1cc2cc(CNc3ccccc3)c(=O)n(CC(=O)Nc3ccccc3)c2cc1OC -20%
CCc1cccc(NC(=O)c2cn3c4c(ccc(Cl)c4c2=O)OC(C)C3)c1 (stereo not drawn) -19.6%
CCn1nnc2cc(C(=O)Nc3ccc(Cl)cc3C)ccc21 13.9%
CCc1cccc(-n2c(=O)c3cccnc3n2CC(=O)NCc2ccccc2)c1 -26.2%
